In the RNAGym collection of RNA variant scans (doi:10.1101/gad.245936.114) one finds nonsense suppression data, which are given here for 83 variants.

To fix the notation:
B1: tRNA (parent)
chain: CUCUCGGUAGCCAAGUUGGUUUAAGGCGCAAGACUUUAAUUUAUCACUACGAAAUCUUGAGAUCGGGCGUUCGACUCGCCCCCGGGAGAUUUUUUCCUCGAGCAA

Variants at the background level are over-represented here.

The series covers variants of B1. The series is described as follows: nonsense suppression (GFP-seq) (ratio to wild type); higher = more function; SUP4oc tRNA, yeast GFP reporter sort-seq. The gist of the method:
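Yeast were grown in raffinose/galactose medium with 80 mg/L adenine, each strain bearing a genome-integrated ochre-suppressor tRNA variant from a ~3% random-mutation library, a galactose-driven GFP ochre reporter, and RFP. After sorting into GFP/RFP bins, every bin was sequenced on an Illumina platform at phred ≥30. The GFPSEQ value, a measure of nonsense suppression, is the weighted bin median GFP/RFP relative to the unmutated parent tRNA, using each variant's estimated cell share per bin as the weight. Only variants with ≥100 reads and ≥30 cells were included.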
A9G A54C: the nonsense suppression was 0.207.
As for G7C U20C C27G C29A G59U C75G, the figure is no more than 0.026; as for U8C G18C A30C C80U, no more than 0.026; as for A33C C34G G84U, no more than 0.026.
For A33G G59C the value was no more than 0.026; for C3U A31C G88C, no more than 0.026.
G19C G61C C64A: the nonsense suppression was no more than 0.026.
For G15A G84A the value was no more than 0.026.
For U57A A60C the value was 0.0859.
Take U4C A13G A14U G25U C29A A33G: the nonsense suppression is no more than 0.026.
As to C77U A87C, the nonsense suppression is no more than 0.026.
For the variant A23G A33G, the nonsense suppression was no more than 0.026.
Regarding C27A A33U G69U, the nonsense suppression is no more than 0.026.
For A24U G73C C80G the value was no more than 0.026; for C1G G10C A31U A33U U55C C81G, no more than 0.026; for C11G G61A U70A G84A, no more than 0.026.
Turning to G59A U63C, the nonsense suppression is no more than 0.026.
For C27G C29U U35A the value was no more than 0.026.
As for G6U A60C, the figure is no more than 0.026; as for C34U G85U G86U, no more than 0.026.
Consider A24C U63G, for which the nonsense suppression is 0.133.
For the variant G19A A33U U71A, the nonsense suppression is no more than 0.026.
As for C11U U35G U55G U76A C82G, the figure is no more than 0.026; as for A24U A74C C79A C81A, no more than 0.026.
For G7U A14G U57C G78A, the nonsense suppression was no more than 0.026.
As for G25U U70A, the figure is no more than 0.026; as for C34G G86A, no more than 0.026.
As to U22A C27G C29G U76G, the nonsense suppression is no more than 0.026.
As for A24G A89C, the figure is no more than 0.026; as for C12G G25A G69C, no more than 0.026; as for C12G A33G U76G, no more than 0.026.
For U2A U20A the value was no more than 0.026.
Regarding C3A G15U C72G, the nonsense suppression was no more than 0.026.
For U16G G18A A30U G73C G78A C83G the value was no more than 0.026; for A13G C64G, no more than 0.026.
Turning to G10C G73C, the nonsense suppression is no more than 0.026.
As for C3A U63C G69A, the figure is no more than 0.026.
As for U2C G88A, the figure is no more than 0.026; as for A9U A30G G69A, no more than 0.026; as for U2G A30U C34G, no more than 0.026.
As for C12A G61C G66C, the figure is no more than 0.026.
Consider A14U G28C A62G U76C G78A, for which the nonsense suppression is no more than 0.026.
For U21G C80U G88C the value was no more than 0.026.
As for A9U C11G A30G C80G, the figure is no more than 0.026; as for U20G U22A G25U G32C C75G G84C, no more than 0.026.
Turning to C29A C64G G73A, the nonsense suppression was no more than 0.026.
For U4A A23C A33U the value was no more than 0.026.
As for U16G U21C G78A G85C, the figure is no more than 0.026; as for A14C U16C, no more than 0.026.
As for A9C A54U, the figure is 1.21; as for U17C G28C C75G, 1.02.
As for A13C A62G, the nonsense suppression worked out at 0.0702.
With C1U U55G C83G, the nonsense suppression was no more than 0.026.
For G10U U22C A31G G78U the value was no more than 0.026; for U2G G7U, no more than 0.026; for U57A G67U G78C, no more than 0.026.
On to U4C C12G U55A G73C G85C, for which the nonsense suppression was no more than 0.026.
For C29U C68A G88A, the nonsense suppression is no more than 0.026.
U63A G78C A87G: the nonsense suppression is no more than 0.026.
For G19C A24G U57A A62C G73A the value was no more than 0.026; for U21G U57G C64U G69C U70G U76A, no more than 0.026; for U20A U57C G73C C82G, no more than 0.026.
For C3A U20C A74U the value was no more than 0.026.
For G19A U63C the value was no more than 0.026; for C1U G28U G84A, no more than 0.026.
As to C1G A9C, the nonsense suppression is no more than 0.026.
As to G6U G18C U76C A87G, the nonsense suppression is no more than 0.026.
As for U21C, the figure is 0.954; as for U21C C56U, 0.174.
For C11G C72G the value was no more than 0.026; for U71C C72U, no more than 0.026.
In the case of A74U G84C G85C, the nonsense suppression is no more than 0.026.
As to A24U C56A U63C U70C, the nonsense suppression is no more than 0.026.
Take G6C A9U: the nonsense suppression was no more than 0.026.
Take A14C C56G A87G: the nonsense suppression was no more than 0.026.
In the case of C81U A87G, the nonsense suppression stood at 0.239.
As for A13U C64G, the figure is no more than 0.026.
With C1U G18U G73U, the nonsense suppression is no more than 0.026.
For the variant G15C C68A, the nonsense suppression was no more than 0.026.
As for U4G C11G C27G, the figure is no more than 0.026; as for G15U G32C G73U C81U, no more than 0.026; as for C79U C82G G86U, no more than 0.026.
For U21A G67A G85C the value was no more than 0.026.
